Experimental data: EPA's CvTdb concentration-time database
The source gives many values for each of these; only a part stands here.

How the values were obtained:
Test in all cases: concentration in plasma after dosing
Rat [1] = details: 10 min; dosed: Gemfibrozil; 4.29 mg/kg; iv; Male; Sprague-Dawley
Rat [2] = details: 10 h; dosed: Gemfibrozil; 100 mg/kg; oral; Male; Sprague-Dawley
Rat [3] = details: 0.25 h; dosed: Gemfibrozil; 4.29 mg/kg; iv; Male; Sprague-Dawley
Rat [4] = details: 3 h; dosed: Gemfibrozil; 4.29 mg/kg; iv; Male; Sprague-Dawley
Rat [5] = details: 24 h; dosed: Gemfibrozil; 4.29 mg/kg; iv; Male; Sprague-Dawley
Rat [6] = details: 2 h; dosed: Gemfibrozil; 4.29 mg/kg; iv; Male; Sprague-Dawley
Rat [7] = details: 0.25 h; dosed: Gemfibrozil; 4.29 mg/kg; iv; Male; Sprague-Dawley; remark: listed apart in the source
Rat [8] = details: 10 h; dosed: Gemfibrozil; 4.29 mg/kg; iv; Male; Sprague-Dawley
Rat [9] = details: 4 h; dosed: Gemfibrozil; 4.29 mg/kg; iv; Male; Sprague-Dawley
Rat [10] = details: 5 min; dosed: Gemfibrozil; 4.29 mg/kg; iv; Male; Sprague-Dawley
Rat [11] = details: 18 h; dosed: Gemfibrozil; 4.29 mg/kg; iv; Male; Sprague-Dawley
Rat [12] = details: 1 h; dosed: Gemfibrozil; 4.29 mg/kg; iv; Male; Sprague-Dawley
Rat [13] = details: 10 min; dosed: Gemfibrozil; 4.29 mg/kg; iv; Male; Sprague-Dawley; remark: listed apart in the source
Rat [14] = details: 10 h; dosed: Gemfibrozil; 100 mg/kg; oral; Male; Sprague-Dawley; remark: listed apart in the source
Rat [15] = details: 0.5 h; dosed: Gemfibrozil; 4.29 mg/kg; iv; Male; Sprague-Dawley
Rat [16] = details: 15 h; dosed: Gemfibrozil; 100 mg/kg; oral; Male; Sprague-Dawley
Rat [17] = details: 4 h; dosed: Gemfibrozil; 4.29 mg/kg; iv; Male; Sprague-Dawley; remark: listed apart in the source
Rat [18] = details: 24 h; dosed: Gemfibrozil; 4.29 mg/kg; iv; Male; Sprague-Dawley; remark: listed apart in the source
Rat [19] = details: 15 h; dosed: Gemfibrozil; 4.29 mg/kg; iv; Male; Sprague-Dawley
Rat [20] = details: 15 h; dosed: Gemfibrozil; 100 mg/kg; oral; Male; Sprague-Dawley; remark: listed apart in the source
Rat [21] = details: 5 min; dosed: Gemfibrozil; 4.29 mg/kg; iv; Male; Sprague-Dawley; remark: listed apart in the source
Rat [22] = details: 1 h; dosed: Gemfibrozil; 4.29 mg/kg; iv; Male; Sprague-Dawley; remark: listed apart in the source
Rat [23] = details: 18 h; dosed: Gemfibrozil; 4.29 mg/kg; iv; Male; Sprague-Dawley; remark: listed apart in the source
Rat [24] = details: dosed: Gemfibrozil, Male, Sprague-Dawley
Rat [25] = details: 15 h; dosed: Gemfibrozil; 4.29 mg/kg; iv; Male; Sprague-Dawley; remark: listed apart in the source
Rat [26] = details: 3 h; dosed: Gemfibrozil; 4.29 mg/kg; iv; Male; Sprague-Dawley; remark: listed apart in the source
Rat [27] = details: 6 h; dosed: Gemfibrozil; 4.29 mg/kg; iv; Male; Sprague-Dawley
Rat [28] = details: 0.5 h; dosed: Gemfibrozil; 4.29 mg/kg; iv; Male; Sprague-Dawley; remark: listed apart in the source
Rat [29] = details: 10 h; dosed: Gemfibrozil; 4.29 mg/kg; iv; Male; Sprague-Dawley; remark: listed apart in the source
Rat [30] = details: 6 h; dosed: Gemfibrozil; 4.29 mg/kg; iv; Male; Sprague-Dawley; remark: listed apart in the source
Rat [31] = details: 2 h; dosed: Gemfibrozil; 4.29 mg/kg; iv; Male; Sprague-Dawley; remark: listed apart in the source

**Q.** Which results are given for `Cc1ccc(C)c(OCCCC(C)(C)C(=O)O)c1` [Gemfibrozil]?
**A.** concentration in plasma (Rat [1]): 3680 ng/mL; concentration in plasma (Rat [2]): 5000 ng/mL; concentration in plasma (Rat [3]): 2730 ng/mL; concentration in plasma (Rat [4]): 92.5 ng/mL; concentration in plasma (Rat [5]): 72.3 ng/mL; concentration in plasma (Rat [6]): 406 ng/mL; concentration in plasma (Rat [7]): 2700 ng/mL; concentration in plasma (Rat [8]): 146 ng/mL; concentration in plasma (Rat [9]): 543 ng/mL; concentration in plasma (Rat [10]): 18700 ng/mL; concentration in plasma (Rat [11]): 106 ng/mL; concentration in plasma (Rat [12]): 70.5 ng/mL; concentration in plasma (Rat [13]): 7360 ng/mL; concentration in plasma (Rat [14]): 6950 ng/mL; concentration in plasma (Rat [15]): 503 ng/mL; concentration in plasma (Rat [16]): 7240 ng/mL; concentration in plasma (Rat [17]): 514 ng/mL; concentration in plasma (Rat [18]): 120 ng/mL; concentration in plasma (Rat [19]): 119 ng/mL; concentration in plasma (Rat [20]): 1460 ng/mL; concentration in plasma (Rat [21]): 15500 ng/mL; concentration in plasma (Rat [22]): 81.3 ng/mL; concentration in plasma (Rat [23]): 114 ng/mL; concentration in plasma (Rat [24]; 5 min, 4.29 mg/kg, iv): 14900 ng/mL; concentration in plasma (Rat [24]; 10 min, 4.29 mg/kg, iv): 2330 ng/mL; concentration in plasma (Rat [24]; 0.25 h, 4.29 mg/kg, iv): 4450 ng/mL; concentration in plasma (Rat [24]; 0.5 h, 4.29 mg/kg, iv): 691 ng/mL; concentration in plasma (Rat [24]; 1 h, 4.29 mg/kg, iv): 554 ng/mL; concentration in plasma (Rat [24]; 1 h, 100 mg/kg, oral): 25000 ng/mL; concentration in plasma (Rat [24]; 2 h, 4.29 mg/kg, iv): 465 ng/mL; concentration in plasma (Rat [24]; 3 h, 4.29 mg/kg, iv): 284 ng/mL; concentration in plasma (Rat [24]; 4 h, 4.29 mg/kg, iv): 236 ng/mL; concentration in plasma (Rat [24]; 6 h, 4.29 mg/kg, iv): 207 ng/mL; concentration in plasma (Rat [24]; 10 h, 4.29 mg/kg, iv): 214 ng/mL; concentration in plasma (Rat [24]; 10 h, 100 mg/kg, oral): 8640 ng/mL; concentration in plasma (Rat [24]; 15 h, 4.29 mg/kg, iv): 114 ng/mL; concentration in plasma (Rat [24]; 15 h, 100 mg/kg, oral): 4190 ng/mL; concentration in plasma (Rat [24]; 18 h, 4.29 mg/kg, iv): 81.2 ng/mL; concentration in plasma (Rat [24]; 24 h, 4.29 mg/kg, iv): 119 ng/mL; concentration in plasma (Rat [25]): 278 ng/mL; concentration in plasma (Rat [26]): 548 ng/mL; concentration in plasma (Rat [27]): 480 ng/mL; concentration in plasma (Rat [28]): 452 ng/mL; concentration in plasma (Rat [29]): 124 ng/mL; concentration in plasma (Rat [30]): 460 ng/mL; concentration in plasma (Rat [31]): 166 ng/mL
